Test results as given in PubChem BioAssay (NCI).
More than one record can exist for a structure, and the calls need not agree.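 Percent growth is the endpoint: 0 to 100 indicates growth inhibition (40 means 60% inhibition), 0 means no net growth, and negative values indicate cell death.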 A number of entries come with more than one value. Only these are listed. An entry can have further records. For part of these data: These are repeated runs of one drug, at the concentration stated with the values; one value stands for one run. Marks such as (2×) give the number of equal values in this list. Some values that stand alone complete this part of the results. Activity calls are given as the source filed them. Rule for the calls: active = growth percent below 10; inactive = the rest.

Key:
SF-539 CNS = experiment: NCI-60 one-dose screen, 48 h (100 = growth as untreated, 0 = no growth, -100 = all killed)
M14 melanoma = experiment: as above; details: 0.25 µM

COc1cccc2c1C(=O)c1c(O)c3c(c(O)c1C2=O)C[C@@](O)(C(=O)CO)C[C@@H]3OC1CC(N)C(O)C(C)O1 (stereo not given in full)
growth (SF-539 CNS; 0.25 µM, runs of 2021): inactive: 26.1, 44.5, 32.5, 29.4, 30, 32, 29.7, 28.4, 22.4, 24.7, 22.2, 30.3 (2×), 25.7, 30.6, 19.5 (2×), 23.9, 24.4 (2×), 24.9, 23.2, 23.3 (2×), 26, 24.5 (2×), 21.2, 27.1, 24.2, 32.7, 28.1, 19.8, 29, 35.8, 21.6, 25.3, 23.5 (2×), 23.7, 21.8, 22.7, 25.5 (2×), 29.8 (2×), 31.1, 35.6, 22.8, 20.4, 17.2, 16.4, 12.3, 15, 23.4, 19%
growth (SF-539 CNS; 0.25 µM, runs of 2022): active: -4.08, -3.13, -11.4, -4.37, 4.94, 8.37, 4.17, 7.73, 9.07% and inactive: 20.1, 22, 14.6, 10.4, 18, 13.1, 24.7, 14.3, 22.8, 12.8, 12.4, 41.2, 55.5, 20.6, 49.2, 39.5, 68.3, 12.9, 15.1%
growth (SF-539 CNS; 25 µM, runs of 1991): active: -100 (2×), -98.8 (2×), -92, -97.6, -96 (2×), -94.3, -98.9, -90.2, -91.7, -82.6, -98.2, -97.1, -80.6, -67.1, -80.8, -84.4%
growth (SF-539 CNS; 25 µM, runs of 1992): active: -98.8, -74, -65.8, -85.6, -55.3, -97.5 (4×), -93, -91.8, -76.5 (2×), -100 (5×), -90.6 (2×), -96.4 (2×), -75.2, -79.6 (2×), -74.7 (2×), -88.8, -89.5, -96.2, -94.1 (2×), -93.2 (2×), -93.6, -98.6 (2×), -71.7, -77.9, -82.3, -63.8, -88.9 (2×), -94.8, -91.9, -98.2, -99.2, -97, -92.5, -73.1, -88.2, -82, -64.4, -98.3 (2×), -99, -98.4, -93.5, -99.3 (2×), -91, -68.7, -72.1, -63.6, -82.7, -96.7 (3×), -97.1 (2×), -49.4, -98.1, -25.2, -66.8, -62.1, -70.4, -66.4, -78.2, -82.2, -90.8, -99.9, -80.7, -56, -93.1, -90.2, -83.9, -97.2 (2×), -83.3, -94.4, -95.7, -68.3, -99.4, -58.8, -53.6, -85.9, -79.1, -87, -97.8, -35.3, -81.3, -16.4, -96.5, -84, -91.1, 0.556, -86.5, -84.4, -92.9%
growth (SF-539 CNS; 25 µM, runs of 1993): active: -58.2, -85.6, -51.5, -96.1, -77.2, -99.6, -57.2, -56, -47.8 (2×), -82.2, -99.5, -96.6, -8.84, -70.5, -68.3, -64.4, -100, -94 (2×), -76.9, -73.7, -71.6, -94.8, -95.5, -54.9, -84.5, -71.2, -91.2, -72.2, -87.4, -95.9, -11.6, -79.2, -82.6, -48.2, -84.7, -66.5, -87.3, -89.6, -62.5, -88.5, -99.4, -80.9, -91.8%
growth (SF-539 CNS; 25 µM, runs of 1994): active: -43.3, -85.2, -36.3, -93.2, -46, -85, -82.9 (2×), -87.5, -58, -50.4, -88.3, -87.6, -66.7, -51.5, -100, -53.8, -65, -95.6, -48.9, -95.7, -96.1, -64.3, -50.6, -82, -98.2, -16.3, -43.6, -90.6, -41, -31.6, -93.5%
growth (SF-539 CNS; 25 µM, runs of 1995): active: -43.9, -100, -56.5 (2×), -33.2, -10.5, -91.4, -93.6, -26, -47, -86.8, -61.2, -62.4, -59.5, -71.1, -78.1, -18.7, -80.6, -88, -90.5, -51.7, -96.7, -99.4, -29.6, -26.8, -54.9, -42.5, -42, -85.8, -24.8, -62.1, -40.9, -56.3, -82.9, -74, -59.4, -80.1, -37, -76.7%
growth (SF-539 CNS; 25 µM, runs of 1996): active: -63.5, -38.3, -88.4, -38, -64.6, -59, -82.2, -39.1, -15.6, -48, -49.3, -80.6, -59.3, -63.2, -66.9, -57.7, -0.924, -49.1, -93.4, -67.9, -41.2, -58.6, -41.1, -29.6, -70.6, -74.8, -94, -48.7, -54.2, -36.8, -14.9, -32.4, -98.2, -87, -79.5, -68.6, -61.7, -42.5, -88, -88.7, -100, -45.5, -66.7, -90.7, -65.2, -72.5, -66.4% and inactive: 98.3%, 44.5%, 28.5%
growth (SF-539 CNS; 25 µM, runs of 1997): active: 0, -63, -95.1, -47.2, -55, -68, -33.3, -45.2, -63.5, -83.8, -53.7, -90.3, -59.8, -56.3, -41.4, -97.2, -76, -93.6, -65.8, -37, -71.7, -75.9, -83.6, -69.3, -86, -9.05, -65.5, -71.4, 7.48, -46, -37.3, -76.6, -68.5% and inactive: 86.9%
growth (SF-539 CNS; 25 µM, runs of 1998): active: -66.5, -64.9, -92.9, -44.3, -19.5, -18.8 (2×), -70.3, -93.6, -72, -80.2, -76.7, -54.5, -68.4, -58.2, -73.7, -41.4, -74.8, -48.4%
growth (SF-539 CNS; 25 µM, runs of 1999): active: -56.2, -19, -72.6, -97.9, -53.5, 0.143, 0.366, -20, 3.26, -8.51% and inactive: 20.4%
growth (SF-539 CNS; 25 µM, runs of 2000): active: -88.8, -100, -40.9, -71.5%
growth (M14 melanoma; runs of 2006): inactive: 42.3%
growth (M14 melanoma; runs of 2007): inactive: 29.7, 40.5, 39.9, 51.5, 53.3, 46.6, 56.1, 64.1, 54.4, 47.5, 58.7, 50.9, 54.2, 55.4, 52.5, 54.9, 59.5, 48.8, 74.9, 58, 44.2, 47, 36.6, 51.6, 73.8, 62.3, 63.7, 57.4, 24.3, 68.5, 60.2, 45, 53.1, 73.4, 65.7, 48.5, 43.9, 46.4, 50.4, 60.5%
growth (M14 melanoma; runs of 2008): inactive: 62.5, 39.3, 53.2, 51, 53.7, 53.4, 52.6, 53, 58.6, 56.5, 62, 65, 64.2, 62.4, 28.6, 42.2, 46.2, 49.1, 46.6, 45.8, 41, 32.6, 38.3, 40.5, 34.4 (2×), 38.9, 46.3, 45.9, 99, 46.5, 20, 26.8, 43.1, 22.5, 28.2, 39.1, 37.5, 40.9, 62.2, 60.5, 57.9, 47.8, 59.7, 59.5, 71.4, 65.4, 47.2, 56.2, 18.2, 42.7, 47.3%
